Reference: the supplement of paper PMC5919970
Counter-ions that a name gives are not always drawn. Over roughly 2,000 compounds, “fractional viability relative to vehicle” has its median near 0.91; the lowest 2% begin near 0.045. The list shows a part of the results.

Test system: TYKNU
Assay: fractional viability relative to vehicle; TYKNU is a high-grade serous ovarian cancer line; higher = less growth inhibition
Details: 72 h
Method in brief: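 TYKNU control cells or lentiCRISPRv2 knockout derivatives were seeded at 500 cells per well into drug-stamped 384-well plates holding a ~2100-compound library at 2 or 10 μM, in duplicate. Cells were grown at 37 °C in 5% CO2 in RPMI 1640 with 10% FBS, and drug treatment lasted 72 h. Viability was read by Cell Titer Glo luminescence. Duplicate treatment wells were averaged and normalised to duplicate control wells from the same plate position.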

[1] = 2uM, genotype: DNM1L knockout (sgDNM1L #1)
[2] = 2uM, genotype: sgCTRLA1 (non-targeting control)
[3] = 10uM, genotype: DNM1L knockout (sgDNM1L #1)
[4] = 10uM, genotype: sgCTRLA1 (non-targeting control)

Structure (SMILES) | fractional viability [1] | fractional viability [2] | fractional viability [3] | fractional viability [4]
CC(C(=O)O)c1ccc(C(=O)c2cccs2)cc1 (stereo not given) [Suprofen] | 0.976 | 1.12 | 0.964 | 1.08
CN(C)CCCCC(=O)Nc1ccc(NC(=S)NC(=O)c2ccc(C(C)(C)C)cc2)cc1 [Tenovin-6] | 0.503 | 0.659 | 0.0825 | 0.0651
C=C(c1ccc(C(=O)O)cc1)c1cc2c(cc1C)C(C)(C)CCC2(C)C [Bexarotene] | 0.94 | 1.25 | 0.777 | 0.974
CC[N+](CC)(CC)CCOc1cccc(OCC[N+](CC)(CC)CC)c1OCC[N+](CC)(CC)CC [Gallamine Triethiodide] | 0.926 | 0.996 | 0.802 | 1.08
Cc1ccccc1N=Nc1ccc(NC(=O)c2ccnn2C)c(C)c1 | 0.879 | 0.844 | 0.918 | 0.779
Cc1c[nH]c(/C=C2\C(=O)Nc3ccccc32)c1CCC(=O)O | 0.91 | 0.936 | 0.874 | 0.784
CCc1oc2ccccc2c1C(=O)c1cc(Br)c(O)c(Br)c1 [Benzbromarone] | 0.864 | 1.1 | 0.83 | 1.04
CC/C(=C(\c1ccccc1)c1ccc(OCCN(C)C)cc1)c1ccccc1 [Tamoxifen Citrate] | 1.12 | 1.15 | 0.512 | 0.689
Cn1cc(-c2ccc(S(=O)(=O)n3ccc(/C=C/C(=O)Nc4ccccc4N)c3)cc2)cn1 | 0.114 | 0.18 | 0.0985 | 0.136
Cc1cnc(C(=O)O)c[n+]1[O-] [Acipimox] | 1.06 | 0.95 | 1.03 | 0.941
COc1ccc(C2=N[C@H](c3ccc(Cl)cc3)[C@H](c3ccc(Cl)cc3)N2C(=O)N2CCNC(=O)C2)c(OC(C)C)c1 [Nutlin-3b] | 0.73 | 0.879 | 0.524 | 0.709
O=C(Nc1ccc([N+](=O)[O-])cc1O)Nc1ccccc1Br | 0.258 | 0.266 | 0.172 | 0.109
O=C(c1cncc(Br)c1)N1CCC(N2CCCC2)CC1 | 0.816 | 0.901 | 0.828 | 0.765
O=c1c(O)c(-c2ccc(O)c(O)c2)oc2cc(O)cc(O)c12 [Quercetin] | 1.03 | 1.17 | 0.869 | 1.07
O=c1c(O)c(-c2ccc(O)c(O)c2)oc2cc(O)cc(O)c12 [Quercetin Dihydrate] | 1.01 | 1.11 | 0.971 | 1.17
O=C(O)c1cc(I)ccc1NC(=O)[C@H](Cc1ccccc1)NCc1ccccc1 | 0.795 | 0.952 | 0.918 | 0.807
CCN1CCN(Cc2ccc(Nc3ncc(F)c(-c4cc(F)c5nc(C)n(C(C)C)c5c4)n3)nc2)CC1 | 0.289 | 0.473 | 0.0303 | 0.0236
COCCc1ccc(OCC(O)CNC(C)C)cc1 (stereo not given) [Metoprolol Tartrate] | 1.03 | 1.1 | 0.925 | 0.923
COc1ccc(CN2CCN(C(c3ccc(F)cc3)c3ccc(F)cc3)CC2)c(OC)c1OC [Lomerizine HCl] | 1.02 | 1.12 | 0.696 | 1.13
CC(C)Cc1ccc(C(C)C(=O)O)cc1 (stereo not given) [Ibuprofen] | 1.03 | 1.1 | 0.925 | 1.03

Structure (SMILES) | fractional viability [1] | fractional viability [2] | fractional viability [3] | fractional viability [4]
Nc1ncnc2c1C(=O)N(c1ccc([C@H]3CC[C@H](CC(=O)O)CC3)cc1)CCO2 | 0.929 | 0.967 | 0.819 | 0.967
CN1CCC(NC(=O)c2cc(-c3c(O)cc(O)cc3Oc3ccc([N+](=O)[O-])cc3)on2)CC1 | 0.249 | 0.201 | 0.275 | 0.186
Cc1cc(-c2ncc(CC(=O)Nc3ccc(-c4cnccn4)cn3)cc2C)ccn1 | 0.863 | 1.1 | 0.665 | 0.746
Cc1cnc(C(=O)NCCc2ccc(S(=O)(=O)NC(=O)NC3CCCCC3)cc2)cn1 [Glipizide] | 0.818 | 1.13 | 0.918 | 0.979
O=C1[C@H](CC[C@H](O)c2ccc(F)cc2)[C@@H](c2ccc(O)cc2)N1c1ccc(F)cc1 [Ezetimibe] | 0.908 | 1.06 | 0.592 | 0.868
c1cc(-c2cnn3cc(-c4ccc(OCCN5CCCCC5)cc4)cnc23)ccn1 [Dorsomorphin (Compound C)] | 0.845 | 0.916 | 0.552 | 0.503
COc1ncc(-c2ccc3nccc(-c4ccnnc4)c3c2)cc1NS(=O)(=O)c1ccc(F)cc1F | 0.446 | 0.184 | 0.0665 | 0.0352
COc1cc2ncnc(Oc3ccc(CC(=O)Nc4cnn(C(C)C)c4)cc3)c2cc1OC | 0.932 | 1.12 | 0.916 | 1.08
CN1CCC(=C2c3ccccc3CCc3sccc32)CC1 [Pizotifen Malate] | 0.954 | 1.11 | 0.806 | 0.908
CCN(CC)CCOc1ccc(C(=C(Cl)c2ccccc2)c2ccccc2)cc1 [Clomifene citrate] | 0.751 | 1.08 | 0.178 | 0.479
CCCCCOC(=O)Nc1nc(=O)n([C@@H]2O[C@H](C)[C@@H](O)[C@H]2O)cc1F [Capecitabine] | 1.08 | 1.1 | 0.815 | 1.02
CCCCNc1ccc(C(=O)OCCN(C)C)cc1 [Tetracaine HCl] | 1.03 | 1.12 | 1.03 | 0.983
O=C1CCc2ccc(OCCCCN3CCN(c4cccc(Cl)c4Cl)CC3)cc2N1 [Aripiprazole] | 0.859 | 1.03 | 0.416 | 0.572
COc1c2ccoc2cc2oc(=O)ccc12 [Bergapten] | 0.872 | 1.13 | 0.835 | 1.12
CCCCCCCCCCCC1=C(O)C(=O)C=C(O)C1=O [Embelin] | 0.857 | 1.01 | 0.651 | 0.992
CNCc1cc(-c2ccccc2F)n(S(=O)(=O)c2cccnc2)c1 | 0.688 | 0.996 | 0.621 | 0.76
Cc1ccccc1C(OCCN(C)C)c1ccccc1 (stereo not given) [Orphenadrine Citrate] | 1.01 | 1.08 | 0.829 | 0.887
O=C1C(O)=C([C@H]2CC[C@H](c3ccc(Cl)cc3)CC2)C(=O)c2ccccc21 [Atovaquone] | 1.15 | 1.05 | 0.875 | 0.971
Cc1nn(C)c2c1C(c1ccc(C(F)(F)F)cc1)C(C#N)=C(N)O2 (stereo not given) | 0.924 | 1.08 | 0.886 | 0.86
OC[C@H]1O[C@@H](c2ccc(Cl)c(Cc3ccc(O[C@H]4CCOC4)cc3)c2)[C@H](O)[C@@H](O)[C@@H]1O | 0.8 | 1.06 | 0.788 | 0.819
